According to PubChem BioAssay (NCATS):
Where “and” joins values, the source holds several entries; their conditions need not be identical. Equal entries are not always repeated. Inconclusive results, whose numbers are uncertain, are shown with a selection of clear calls. Potencies beside an inconclusive call are fits to weak or partial responses and may not hold up. Calls of active or inactive are those of the source. Calls follow the shape of the dose curve; as a rule, active = well fitted curve in the direction sought with a large enough effect; inconclusive = small, poorly fitted or top-dose-only effect, or another doubt; inactive = no such curve, though single readings can be large; an effect the other way counts as inactive or inconclusive.

How the values were obtained:
[1] = NS1 protein of Zika virus - qHTS assay to identify small molecule inhibitors in human HEK 293 cells (AID 1347053); details: HEK293 ZIKV MR766 infection, NS1 TR-FRET, 24 h; series mostly up to 46.1 µM; also: nearly all actives have a fitted effect of over 55% in size
Summary of the method: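 Read-out is a two-antibody TR-FRET for ZIKV NS1, normalized between uninfected cells and infected cells. Compound added 1 h before MR766 infection at MOI 0.5; human HEK 293 cells incubated 24 h, 37 C.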

[2] = qHTS of pediatric cancer cell lines to identify multiple opportunities for drug repurposing: Primary screen for DAOY cells (AID 1347090); details: DAOY medulloblastoma viability, CellTiter-Glo luminescence, 48 h; activity change, negative = cytotoxic: at 46 µM (top of the series) unless noted; also: nearly all actives have a fitted effect of over 55% in size;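 as to activity change, negative = cytotoxic: plate controls were DMSO for no effect and bortezomib for full effect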
Summary of the method: (§1)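 Cell viability, CellTiter-Glo luminescence; 500-1,000 cells/well, 8- or 11-point titration, 48 h compound exposure at 37 degrees C, 5% CO2. Controls: DMSO neutral, bortezomib 2.3 µM final as positive.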

[3] = qHTS of pediatric cancer cell lines to identify multiple opportunities for drug repurposing: Primary screen for SJ-GBM2 cells (AID 1347091); details: SJ-GBM2 viability, CellTiter-Glo luminescence, 48 h; series mostly up to 46 µM;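 as to activity change, negative = cytotoxic: plate controls were DMSO neutral control for no effect and bortezomib for full effect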
Summary of the method: as §1

[4] = qHTS of pediatric cancer cell lines to identify multiple opportunities for drug repurposing: Primary screen for A673 cells (AID 1347092); details: A673 Ewing sarcoma viability, CellTiter-Glo ATP luminescence, 48 h; activity change, negative = cytotoxic: at 46 µM (top of the series); also: nearly all actives have a fitted effect of over 45% in size; as to activity change, negative = cytotoxic: % is scaled to controls: 0 for no effect and ±100 for the full control effect
Summary of the method: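 48 h compound exposure, A673, 500-1,000 cells/well, 37 degrees C/5% CO2. MIPE: 11-point, 0.78 nM-46 µM; NPC: 8-point, 0.59 nM-46 µM (final). Readout CellTiter-Glo luminescence after 15 min RT.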

[5] = qHTS of pediatric cancer cell lines to identify multiple opportunities for drug repurposing: Primary screen for BT-37 cells (AID 1347094); details: BT-37 viability, CellTiter-Glo luminescence, 48 h; series mostly up to 57.3 µM
Summary of the method: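 500-1,000 cells/well; 5 h pre-incubation 37 °C/5% CO2; compound pinned; 48 h; CellTiter-Glo, 15 min RT; luminescence. MIPE 11-pt from 0.78 nM, NPC 8-pt from 0.59 nM final. Bortezomib 2.3 µM final as positive control.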

[6] = qHTS of pediatric cancer cell lines to identify multiple opportunities for drug repurposing: Primary screen for TC32 cells (AID 1347089); details: TC32 Ewing sarcoma viability, CellTiter-Glo luminescence, 48 h; series mostly up to 45.8 µM; also: nearly all actives have a fitted effect of over 60% in size; as to activity change, negative = cytotoxic: % is scaled to controls: 0 for no effect and ±100 for the full control effect
Summary of the method: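 In the primary qHTS, MIPE compounds were tested at 11 concentrations (0.78 nM to 46 µM) and NPC compounds at 8 (0.59 nM to 46 µM) on TC32 cells for 48 h. CellTiter-Glo luminescence gave viability.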

[7] = qHTS of pediatric cancer cell lines to identify multiple opportunities for drug repurposing: Primary screen for SK-N-MC cells (AID 1347093); details: SK-N-MC viability, CellTiter-Glo luminescence, 48 h; activity change, negative = cytotoxic: at 46 µM (top of the series)
Summary of the method: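 Metabolically active cells were quantified by ATP-dependent luminescence (CellTiter-Glo, 15 min at room temperature) following 48 h treatment. Cells had been plated at 500-1,000 per well and settled for 5 h beforehand.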
Potency is read from the fitted curve at half-maximal effect; tags tell the direction and shape of the fitted curve.

SMILES: CC=C(C)C(=O)O[C@H]1C(C)=C[C@]23C(=O)[C@@H](C=C(CO)[C@@H](O)[C@]12O)[C@H]1[C@@H](C[C@H]3C)C1(C)C
- Potency [1]: active: 11.8 µM
- Potency [2]: inconclusive: 0.0093 µM [cytotoxic, full curve, poor fit]

SMILES: CNC1CCC(N(Cc2cccc(-c3ccncc3)c2)C(=O)c2sc3c(F)ccc(F)c3c2Cl)CC1 (stereo unspecified)
- Potency [1]: active: 10.5 µM
- Potency [2]: inconclusive: 18.7 µM [cytotoxic, partial curve]
- Potency [3]: inconclusive: 23.5 µM [cytotoxic, single point]
- Potency [4]: active: 23.5 µM
- Potency [5]: inconclusive: 30.6 µM [cytotoxic, single point]

SMILES: COC(=O)C1=C(C)NC(C)=C(C(=O)OCCCN2CCC(c3ccccc3)(c3ccccc3)CC2)C1c1cccc([N+](=O)[O-])c1 (stereo unspecified)
- Potency [1]: inconclusive: 35.5 µM [inhibitor, partial curve, poor fit]
- Potency [6]: inconclusive: 29.7 µM [cytotoxic, single point]
- Potency [3]: inconclusive: 26.6 µM [cytotoxic, single point]
- Potency [7]: inconclusive: 29.6 µM [cytotoxic, single point] and active: 23.7 µM
- Potency [5]: inconclusive: 24.6 µM [cytotoxic, single point]

SMILES: Cc1ccc(Nc2cc(-c3cccc(N4C(=O)c5ccccc5C4=O)c3)ncn2)cc1NS(C)(=O)=O
- Potency [1]: inconclusive: 37.2 µM [inhibitor, single point]
- Potency [2]: inconclusive: 23.5 µM [cytotoxic, partial curve]
- Potency [3]: inactive
- Potency [4]: active: 18.7 µM
- Potency [7]: inconclusive: 37.2 µM [cytotoxic, single point]
- Potency [5]: inconclusive: 27.3 µM [cytotoxic, single point]

SMILES: CCn1c(C(=O)N(C2CC2)C2CC2)cc2c3c(ncn3C)c(Nc3cc(C)n(C)n3)nc21
- Potency [1]: inactive
- Potency [2]: inconclusive: 23.5 µM [cytotoxic, single point]
- Potency [3]: inconclusive: 37.2 µM [cytotoxic, single point]
- activity change, negative = cytotoxic [4]: inconclusive: -40.9% [cytotoxic]
- Potency [7]: inconclusive: 37.2 µM [cytotoxic, single point]

SMILES: Clc1ccccc1C(c1ccccc1)(c1ccccc1)n1ccnc1
- Potency [1]: inconclusive: 37.2 µM [inhibitor, single point]
- Potency [2]: inconclusive: 29.6 µM [cytotoxic, single point]
- Potency [3]: inconclusive: 33.5 µM [cytotoxic, single point] and inconclusive: 20.9 µM [cytotoxic, single point]
- Potency [4]: inconclusive: 26.6 µM [cytotoxic, single point] and inconclusive: 18.7 µM [cytotoxic, partial curve]
- Potency [7]: inconclusive: 33.5 µM [cytotoxic, single point] and inconclusive: 37.2 µM [cytotoxic, single point]
- Potency [5]: inconclusive: 24.6 µM [cytotoxic, single point] and inconclusive: 30.6 µM [cytotoxic, single point]

SMILES: CC(S)C(=O)NCC(=O)O (stereo unspecified)
- Potency [1]: inconclusive: 11.8 µM [inhibitor, partial curve, poor fit]
- Potency [6]: inactive
- Potency [7]: inconclusive: 29.6 µM [cytotoxic, partial curve, poor fit]

SMILES: CON(C)C(=O)N1N=C(c2cc(F)ccc2F)S[C@]1(CCCN)c1ccccc1
- Potency [1]: active: 14.8 µM
- Potency [2]: active: 0.0015 µM

SMILES: Oc1ccc(-c2ccc(-c3cc(Nc4cccc(CNC5CC5)c4)n[nH]3)cc2)c(O)c1
- Potency [1]: active: 1.18 µM
- Potency [6]: inconclusive: 9.3 µM [cytotoxic, partial curve]
- Potency [5]: active: 5.44 µM

SMILES: CN(C)CC[C@H](CSc1ccccc1)Nc1ccc(S(=O)(=O)NC(=O)c2ccc(N3CCN(Cc4ccccc4-c4ccc(Cl)cc4)CC3)cc2)cc1[N+](=O)[O-]
- Potency [1]: inactive
- Potency [6]: inconclusive: 16.5 µM [cytotoxic, partial curve]
- Potency [2]: active: 18.7 µM
- Potency [4]: active: 3.72 µM
- Potency [5]: inconclusive: 24.3 µM [cytotoxic, partial curve]

SMILES: COc1cc(N2CCC(N3CCN(C)CC3)CC2)ccc1Nc1ncnc(Nc2ccccc2S(=O)(=O)C(C)C)n1
- Potency [1]: inconclusive: 33.2 µM [inhibitor, single point]
- Potency [6]: inconclusive: 18.6 µM [cytotoxic, partial curve, poor fit]
- Potency [3]: inconclusive: 5.9 µM [cytotoxic, full curve, poor fit]
- Potency [4]: active: 9.35 µM
- Potency [7]: inconclusive: 3.72 µM [cytotoxic, full curve, poor fit]

SMILES: CCC(C)n1ncn(-c2ccc(N3CCN(c4ccc(OC[C@H]5CO[C@](Cn6cncn6)(c6ccc(Cl)cc6Cl)O5)cc4)CC3)cc2)c1=O (stereo partly specified)
- Potency [1]: inactive and inconclusive: 29.6 µM [inhibitor, partial curve]
- Potency [2]: inconclusive: 2.35 µM [cytotoxic, full curve, poor fit]
- Potency [3]: inconclusive: 29.9 µM [cytotoxic, single point]
- Potency [4]: inconclusive: 2.35 µM [cytotoxic, full curve]

SMILES: CN(C)c1ccc(C2Nc3ccc4ccccc4c3C3=C2C(=O)CC(C)(C)C3)cc1Br (stereo unspecified)
- Potency [1]: inconclusive: 37.2 µM [inhibitor, single point]
- Potency [2]: inactive
- Potency [3]: inconclusive: 10.5 µM [cytotoxic, partial curve]
- Potency [4]: inconclusive: 7.43 µM [cytotoxic, partial curve]
- Potency [5]: inconclusive: 9.68 µM [cytotoxic, partial curve, poor fit]

SMILES: CC[C@@H]1C=C(C)C[C@H](C)C[C@H](OC)[C@H]2O[C@@](O)(C(=O)C(=O)N3CCCC[C@@H]3C(=O)O[C@H](C(C)=C[C@@H]3CC[C@H](Cl)[C@H](OC)C3)[C@H](C)[C@@H](O)CC1=O)[C@H](C)C[C@H]2OC
- Potency [1]: active: 23.5 µM
- Potency [2]: inactive
- Potency [3]: inconclusive: 18.7 µM [cytotoxic, partial curve]
- Potency [4]: inconclusive: 37.2 µM [cytotoxic, single point]
- Potency [7]: active: 11.8 µM
- Potency [5]: inconclusive: 21.7 µM [cytotoxic, single point]

SMILES: CC(C)C[C@H](NC(=O)[C@H](CCc1ccccc1)NC(=O)CN1CCOCC1)C(=O)N[C@@H](Cc1ccccc1)C(=O)N[C@@H](CC(C)C)C(=O)[C@@]1(C)CO1
- Potency [1]: inconclusive: 0.631 µM [inhibitor, full curve, poor fit]
- Potency [2]: active: 53.1 nM and active: 93.5 nM

SMILES: COc1cc2c(cc1Cc1cccc(Cl)c1F)c(=O)c(C(=O)O)cn2[C@H](CO)C(C)C
- Potency [1]: inconclusive: 37.2 µM [inhibitor, single point]
- Potency [2]: inconclusive: 23.5 µM [cytotoxic, single point]
- Potency [3]: inconclusive: 16.6 µM [cytotoxic, partial curve]
- Potency [4]: inconclusive: 29.6 µM [cytotoxic, single point]

SMILES: CS(=O)(=O)N1CCN(Cc2cc3nc(-c4cccc5[nH]ncc45)nc(N4CCOCC4)c3s2)CC1
- Potency [1]: active: 4.69 µM
- Potency [2]: inconclusive: 0.296 µM [cytotoxic, full curve]

SMILES: CCNc1cc(NC2CCC(O)CC2)nc(Nc2ccc3c(ccn3Cc3ccccc3)c2)n1 (stereo unspecified)
- Potency [1]: inconclusive: 33.2 µM [inhibitor, single point]
- Potency [6]: inactive
- Potency [2]: inconclusive: 14.8 µM [cytotoxic, partial curve]
- Potency [7]: inconclusive: 37.2 µM [cytotoxic, single point]
- Potency [5]: inconclusive: 34.3 µM [cytotoxic, single point]

SMILES: COc1cc(N2CCC(N3CCN(C)CC3)CC2)ccc1Nc1ncc(Cl)c(Nc2ccccc2S(=O)(=O)C(C)C)n1
- Potency [1]: inconclusive: 37.2 µM [inhibitor, partial curve, poor fit]
- Potency [6]: inactive
- Potency [3]: inconclusive: 23.5 µM [cytotoxic, partial curve, poor fit]
- Potency [4]: inconclusive: 4.69 µM [cytotoxic, full curve, poor fit]

SMILES: COc1ccc(-c2c(-c3ccc(O)cc3O)n[nH]c2C)cc1
- Potency [1]: inconclusive: 60.5 µM [inhibitor, single point]
- Potency [2]: inconclusive: 34 µM [cytotoxic, partial curve, poor fit]
- Potency [3]: inconclusive: 38.2 µM [cytotoxic, partial curve]
- Potency [4]: inconclusive: 42.9 µM [cytotoxic, partial curve]
- Potency [5]: inconclusive: 49.8 µM [cytotoxic, single point]

SMILES: CC(C)n1nc(-c2ccc3oc(N)nc3c2)c2c(N)ncnc21
- Potency [1]: active: 0.0209 µM
- Potency [6]: active: 0.0117 µM
- Potency [4]: active: 0.0037 µM
- Potency [5]: active: 0.0043 µM

SMILES: CCC(=O)NC[C@H](Cc1ccc(OCCc2nc(-c3ccccc3)oc2C)cc1)NC(C)=CC(=O)c1ccc(C(F)(F)F)cc1
- Potency [1]: active: 16.6 µM
- Potency [2]: inconclusive: 5.9 µM [cytotoxic, partial curve]
- Potency [3]: active: 3.32 µM
- Potency [4]: active: 1.87 µM

SMILES: Cc1cc(=O)c2c(O)c3c(O)cc(=O)c4c3c3c(cc(O)c1c23)C(C)(C)C=4O
- Potency [1]: inconclusive: 7.08 µM [inhibitor, partial curve, poor fit]
- Potency [2]: active: 1.16 µM and active: 18.7 µM
- Potency [3]: inconclusive: 6.51 µM [cytotoxic, partial curve, poor fit]
- Potency [4]: inconclusive: 14.6 µM [cytotoxic, single point] and inconclusive: 23.5 µM [cytotoxic, single point]
